This is one part of the list.
B1: PhoQ; a variant is named by its letters at X, in order, P23837 (parent)
chain: MKKLLRLFFPLSLRVRFLLATAAVVLVLSLAYGMVALIGYSVSFDKTTFRLLRGESNLFYTLAKWENNKLHVELPENIDKQSPTMTLIYDENGQLLWAQRDVPWLMKMIQPDWLKSNGFHEIEADVNDTSLLLSGDHSIQQQLQEVREDDDDAEMTHSVAVNVYPATSRMPKLTIVVVDTIPVELKSSYMVWSWFIYVLSANLLLVIPLLWVAAWWSLRPIEALAKEVRELEEHNRELLNPATTRELTSLVRNLNRLLKSERERYDKYRTTLTDLTHSLKTPLXXLQXXLRSLRSEKMSVSDAEPVMLEQISRISQQIGYYLHRASMRGGTLLSRELHPVAPLLDNLTSALNKVYQRKGVNISLDISPEISFVGEQNDFVEVMGNVLDNACKYCLEFVEISARQTDEHLYIVVEDDGPGIPLSKREVIFDRGQRVDTLRPGQGVGLAVAREITEQYEGKIVAGESMLGGARMEVIFGRQHSAPKDE

Variants of: B1
Experiment: enrichment ratio after two sorts for PhoP signalling (ratio (wild type AVST 3.29)); higher = more functional
Details: with PhoP (E. coli)

Variant	enrichment ratio
IWWW	≤ 0.25
VTER	≤ 0.25
FSCG	≤ 0.25
TYLA	6.31
NMCS	≤ 0.25
IQHV	≤ 0.25
NQQY	≤ 0.25
QRFM	≤ 0.25
SARW	≤ 0.25
VNCD	≤ 0.25
AVMF	5.91
PNMN	≤ 0.25
FIVD	≤ 0.25
IQKH	≤ 0.25
PQCV	≤ 0.25
NAHW	≤ 0.25
HQVN	≤ 0.25
YKFR	≤ 0.25
RSYL	≤ 0.25
PMQY	≤ 0.25
KFHW	≤ 0.25
WPDE	≤ 0.25
PWNN	≤ 0.25
DAMI	≤ 0.25
QRCC	≤ 0.25

Variant	enrichment ratio
DTMS	≤ 0.25
KSYH	≤ 0.25
QWAH	2.21
NEMC	≤ 0.25
KGTQ	≤ 0.25
IFYN	≤ 0.25
HGCF	≤ 0.25
KTYC	≤ 0.25
IMWK	≤ 0.25
RGND	≤ 0.25
HMHC	≤ 0.25
KFNS	≤ 0.25
NWWG	≤ 0.25
VMVK	≤ 0.25
WYVE	≤ 0.25
ILHR	≤ 0.25
RIEN	≤ 0.25
ISHN	≤ 0.25
RREM	≤ 0.25
WCYY	≤ 0.25
VQQL	≤ 0.25
LAKE	≤ 0.25
TFEG	≤ 0.25
EHPY	≤ 0.25
DEFP	≤ 0.25

Variant	enrichment ratio
TRGM	≤ 0.25
MMQL	≤ 0.25
VYGR	≤ 0.25
VNYE	≤ 0.25
RDRF	≤ 0.25
GFVG	≤ 0.25
PNEI	≤ 0.25
KKYT	≤ 0.25
FTCY	≤ 0.25
NDAT	≤ 0.25
PQFP	≤ 0.25
GPRP	≤ 0.25
WIRI	≤ 0.25
TNAP	≤ 0.25
LAFD	≤ 0.25
RIMH	≤ 0.25
TVVA	≤ 0.25
WKAV	≤ 0.25
LRCW	≤ 0.25
IVYG	≤ 0.25
PQRF	≤ 0.25
WPPH	≤ 0.25
QPHG	≤ 0.25
QCPQ	≤ 0.25
VQVS	≤ 0.25

Variant	enrichment ratio
YREN	4.52
FAYG	≤ 0.25
FFYD	≤ 0.25
HRLQ	≤ 0.25
LKHQ	≤ 0.25
NVRF	≤ 0.25
TIWD	≤ 0.25
YPIG	≤ 0.25
QPNI	≤ 0.25
EHQN	≤ 0.25
ARVP	≤ 0.25
PQSV	≤ 0.25
TLDF	≤ 0.25
LRPY	≤ 0.25
HYNH	≤ 0.25
VKGH	≤ 0.25
RQKW	≤ 0.25
NQWQ	≤ 0.25
FPTQ	≤ 0.25
HASG	≤ 0.25
DSNH	≤ 0.25
SFCF	≤ 0.25
GLRH	≤ 0.25
ILVP	≤ 0.25
VSVY	0.301

Variant	enrichment ratio
HGLD	≤ 0.25
HFWA	≤ 0.25
GYND	≤ 0.25
MLMA	≤ 0.25
YGPG	≤ 0.25
SAIP	≤ 0.25
QQFN	5.64
RNGC	≤ 0.25
HRMD	≤ 0.25
VCYG	≤ 0.25
DYMI	≤ 0.25
NGTD	≤ 0.25
GHCD	≤ 0.25
MCHQ	≤ 0.25
HPSF	≤ 0.25
QLTF	≤ 0.25
LNRG	≤ 0.25
TMIV	≤ 0.25
AFQG	≤ 0.25
RQVM	≤ 0.25
SHCS	1.13
DNGK	≤ 0.25
TWTI	≤ 0.25
SSEH	≤ 0.25
DFIV	≤ 0.25

Variant	enrichment ratio
TDMW	≤ 0.25
GFQI	≤ 0.25
RGVG	≤ 0.25
FHDG	≤ 0.25
EAWH	≤ 0.25
PYLI	≤ 0.25
AETM	≤ 0.25
GSVC	≤ 0.25
HACI	≤ 0.25
HWAI	≤ 0.25
LDRQ	≤ 0.25
DGWQ	≤ 0.25
VWGV	≤ 0.25
FRWA	≤ 0.25
APYI	≤ 0.25
LKIC	≤ 0.25
YNAA	≤ 0.25
QDDM	≤ 0.25
LPFT	≤ 0.25
FDNV	≤ 0.25
MKLQ	≤ 0.25
SDME	≤ 0.25
INNS	≤ 0.25
PFKF	≤ 0.25
RMAQ	≤ 0.25

Variant	enrichment ratio
HWMA	≤ 0.25
LEDP	≤ 0.25
FQEF	≤ 0.25
PFNH	≤ 0.25
LGMF	≤ 0.25
YNIM	≤ 0.25
FMHL	≤ 0.25
TKIS	4.17
SAHK	≤ 0.25
KRDF	≤ 0.25
PQVH	≤ 0.25
VHCE	≤ 0.25
WNEY	≤ 0.25
WFTK	≤ 0.25
QTHS	≤ 0.25
FMYD	≤ 0.25
MDPI	≤ 0.25
VPVQ	≤ 0.25
VEES	≤ 0.25
HVFW	≤ 0.25
NSAK	≤ 0.25
YKPP	≤ 0.25
KYEQ	≤ 0.25
HYVF	≤ 0.25
QMTT	≤ 0.25

Variant	enrichment ratio
VNRS	≤ 0.25
PFAL	≤ 0.25
QHCY	≤ 0.25
QQSY	≤ 0.25
KDFG	≤ 0.25
LNDL	≤ 0.25
RNMN	≤ 0.25
PMKQ	≤ 0.25
AKNM	≤ 0.25
HPVW	≤ 0.25
HGTH	≤ 0.25
IPTF	≤ 0.25
DPWI	≤ 0.25
ALNG	≤ 0.25
WDTY	≤ 0.25
DTFM	≤ 0.25
RNLE	≤ 0.25
YHHW	≤ 0.25
IAYR	≤ 0.25
IMNS	≤ 0.25

Source: a collection of fitness landscapes (doi:10.1126/science.1257360)
